In article PMC5389568 (Nucleic Acids Research, 2016):

Target: the molecule itself
Test: crystal structure

B1: MAX bHLH-leucine zipper domain ([…]) (domain or fragment)
chain: not shown
B1: binds.
